The campaign covered roughly 48,000 compounds. About 120 (0.25%) were called active. About 4% were inconclusive and are not listed. Calls come from the whole dose curve; as a rule, active = well fitted activation curve with a large enough effect; inconclusive = small, poorly fitted or top-dose-only effect, or another doubt; inactive = no such curve, though single readings can be large or run the other way. Some of the results follow.
Assay: Primary qHTS for Identification of Small Molecule Activators of Huntingtin-Antisense Promoter Activity; note: nearly all actives have a fitted effect of over 55% in size
Conditions: HEK293 HTT-AS promoter firefly luciferase reporter (activity 0% = vehicle and -100% = no light), 24 h; series mostly up to 57.5 µM; activity change, positive = activation: at the top concentration
Summary of the method: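 HEK293 cells carrying firefly luciferase reporters were seeded at 2,500 per well in Opti-MEM and cultured for 24 h. They were then treated with compounds at up to 57.5 uM final for 24 h at 37 degrees C before Dual-Glo luminescence readout.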

Activity change, positive = activation, inactive:
O=C(Nc1cc(C(F)(F)F)ccc1Cl)c1cc(S(=O)(=O)NCc2ccccc2)ccc1F -28.5%, CCOC(=O)c1cccc(NC(=O)Cn2c(=O)nc(-c3ccccc3)c3ccccc32)c1 -11.2%, CCc1cc2c(cc3c(=O)n(CCCC(=O)NCc4ccccc4Cl)nc(CC)n32)s1 -2.63%, Cc1cccc(OCc2ccc(-c3nc(C#N)c(N4CCC(C(N)=O)CC4)o3)o2)c1 -1.82%, COCCCNC(=O)CC(c1cc(OC)c(OC)c(OC)c1)N1Cc2ccccc2C1=O (stereo unspecified) -7.36%, COc1ccc(NC(=O)C(Cc2ccccc2)NS(=O)(=O)c2ccc(Br)s2)cc1OC (stereo unspecified) -12.1%, COc1ccc(OC)c(CCNC(=O)c2cc3c(-c4ccccc4F)nn(C)c3s2)c1 -48.6%, O=C(O)COC(=O)Cc1ccccc1Nc1c(Cl)cccc1Cl -0.645%, CCOc1cc(C(=O)Nc2ccc3oc(-c4ccc(CC)cc4)nc3c2)cc(OCC)c1OCC -40.5%, COc1ccccc1CCNC(=O)CCn1c(=O)c2cccn2c2ccc(F)cc21 -15.5%, Cc1cc(C)cc(NC(=O)CSCn2nnc3c(=O)[nH]c(Cc4ccc(F)cc4)nc32)c1 4.27%, COc1ccc(CCNC(=O)CCc2c(C)nc3cc(-c4ccccc4)nn3c2C)cc1OC -81.8%, Cc1ccc(-c2noc(CCC(=O)Nc3ccc(F)cc3Cl)n2)cc1 -8.88%, Cc1nn(C)c2c1c(-c1ccccc1)cc(=O)n2Cc1ccccc1F -13.3%, Cc1c(Cl)cccc1NC(=O)N1CCN(Cc2cc(=O)n3nc(-c4ccccc4F)sc3n2)CC1 0.142%, NC(=O)CSc1ncc2c(n1)-c1ccccc1N(Cc1ccccc1)S2(=O)=O 16.7%, COc1ccc(NS(=O)(=O)c2ccc3c(c2)CCN3C(=O)C2CC2)cc1OC -90.7%, Cc1cc(C)c2c(=O)cc(C(=O)NCCc3ccc(S(N)(=O)=O)cc3)oc2c1 -18.4%, COc1cccc(CNC(=O)Cn2c(=O)c3cccn3c3ccc(F)cc32)c1OC -2.27%, Cc1ccccc1CNC(=O)C(=O)NCC(c1ccco1)S(=O)(=O)c1ccc(F)cc1 (stereo unspecified) -17.9%, CCC(C)NC(=O)Cn1ncc2c(C)n(Cc3ccc(F)cc3)c(C)c2c1=O (stereo unspecified) -0.544%, CCc1ccc(CNC(=O)c2nn(-c3ccc(C)c(C)c3)nc2CO)cc1 -19.4%, Cc1ccc2c(=O)cc(C(=O)Nc3sc4c(c3C(=O)NCc3ccco3)CCCC4)oc2c1C 1.17%, Cc1ccc2c(CNCc3cccs3)c(C(=O)O)n(Cc3ccc(F)cc3)c2c1 -37.3%, COC(=O)c1ccc(Cn2c(=O)cc(C)c3c(C)nn(C)c32)cc1 -37.8%, CCOc1ccc(Sc2cc(C(=O)NCc3ccc(F)cc3)c3ccccc3n2)cc1 -37.6%, CC(=O)CSc1nc(-c2ccccc2)[nH]c1S(=O)(=O)c1ccc(C)cc1 -13.4%, CCn1cc(C(=O)N2CCN(c3ccccc3)CC2)c(=O)c2cc(S(=O)(=O)N(C)C3CCCCC3)ccc21 0.867%, CN(C)c1ccc(C(CNC(=O)COc2ccccc2)N2CCOCC2)cc1 (stereo unspecified) -6.9%, Cc1cnc(NC(=O)C2=C(O)c3ccccc3S(=O)(=O)N2C)s1, O=C(CN1C(=O)CCSc2ccc(S(=O)(=O)N3CCCC3)cc21)Nc1cccc(Cl)c1 -3.79%, CCN(CC)S(=O)(=O)c1ccc2c(c1)N(CC(=O)NCc1ccccc1)C(=O)CS2 -16.4%, COc1cc(Cl)c(C)cc1NC(=O)CSc1cc(=O)n(C)c2cc(Cl)ccc12 11.5%, Cn1ncc2c(NCc3cccc(Cl)c3)ncnc21 -21.7%, CCOc1ccc(NC(=O)Nc2c(C)n(C)n(-c3ccccc3)c2=O)cc1 -6.78%, Cc1cc(C)n2nc(CNC(=O)c3cccc(Cl)c3)nc2n1 -11.4%, CSc1ccc(CCNC(=O)C(C)n2nc(C)c3c(C)n(-c4ccccc4)nc3c2=O)cc1 (stereo unspecified) -8.04%, Cc1cccc(CNC(=O)c2ccc(-c3nc(CS(=O)(=O)c4ccccc4)c(C)o3)cc2)c1 -18.4%, Cc1ccc(CCNC(=O)Cn2nc(C)c3c(C)n(-c4ccc(C)cc4)nc3c2=O)cc1 -44.6%, Cc1ccc(NC(=O)COc2ccc3oc4c(c3c2)CCCC4)c(C)c1 -11.6%, CN(C)c1ccc(-c2nc(-c3ccccn3)no2)cc1[N+](=O)[O-] -54%, Cc1cccc(NC(=O)C(c2ccccc2)N2Cc3ccccc3C2=O)c1C (stereo unspecified) 0.296%, Cc1noc2ncnc(Nc3ccc(F)cc3)c12 -0.991%, COC(=O)c1sccc1S(=O)(=O)N(CC(=O)Nc1ccc(C)cc1)c1ccccc1 6.87%, COc1ccccc1N1CCN(C(=O)CCn2cnc3onc(-c4ccc(F)cc4)c3c2=O)CC1 -9.59%, Cc1cc(F)ccc1NC(=O)C1CCCN(c2nnc(-n3c(C)ccc3C)s2)C1 (stereo unspecified) -13.3%, Cc1cc(C)cc(N2C(=O)CS(=O)(=O)C23C(=O)N(Cc2ccc(F)cc2)c2ccc(C)cc23)c1 (stereo unspecified) -10.3%, COc1ccc(NC(=O)Cn2c(=O)nc(-c3ccccc3)c3ccccc32)cc1OC -4.76%, O=C(O)CCCc1ccccc1 0.775%, Cn1ncc(C(=O)N2CCN(c3ccccc3)CC2)c1C1CCN(C(=O)OC(C)(C)C)CC1 -9.75%, Cc1ccc(CCNC(=O)NCc2noc3ccc(C)cc23)cc1 -11.6%, CCOc1ccc(-c2cc3nc(C4CCN(C(=O)OC(C)(C)C)CC4)c(C(=O)Nc4ccc(C(=O)OC)cc4)cn3n2)cc1 23.4%, COc1ccc2oc(=O)c(C(=O)NCCc3c(C)[nH]c4c(C)cccc34)cc2c1 -19.1%, COC(=O)c1cc(NC(=O)CCS(=O)(=O)c2cc(Br)cc3c2N(C(=O)C2CC2)CC3)cc(C(=O)OC)c1 -9.29%, CCOc1cc2[nH]c(=O)n(CCC(=O)N3CCN(c4cccc(Cl)c4)CC3)c(=O)c2cc1OCC -3.89%, CCOC(=O)Cn1nc(C)c(NC(=O)COc2ccc(OC)cc2)c1C -0.183%, CCn1c2ccccc2c2cc(NC(=O)COc3cc(C)c(Cl)c(C)c3)ccc21 10.1%, Cc1ccccc1C(=O)Nc1ccc(NC(=O)c2cccs2)cc1 -9.29%, CCOc1ccc(-c2csc3ncnc(Nc4cccc(O)c4)c23)cc1 -29.4%, CCOC(=O)c1c(C)oc2nc(C)nc(N3CCN(c4ccc(C)cc4C)CC3)c12 -16.6%, CC(=O)N1CCCc2cc(S(=O)(=O)N3CCC(C(=O)NCc4ccc(F)cc4)CC3)ccc21 -27%

Reference: PubChem BioAssay AID1508624 (National Center for Advancing Translational Sciences (NCATS), 2021)
